Source: US11912763 (dated 2024)
Read-outs that look alike come from different tables or passages of the source. Each block holds one binder with its values, some of them ahead of it.

Experiments:
Experiment in all cases: ELISA
mouse CLDN18.2 = target: T1, mouse CLDN18.2 (mouse, UniProt P56857)
T1 chain: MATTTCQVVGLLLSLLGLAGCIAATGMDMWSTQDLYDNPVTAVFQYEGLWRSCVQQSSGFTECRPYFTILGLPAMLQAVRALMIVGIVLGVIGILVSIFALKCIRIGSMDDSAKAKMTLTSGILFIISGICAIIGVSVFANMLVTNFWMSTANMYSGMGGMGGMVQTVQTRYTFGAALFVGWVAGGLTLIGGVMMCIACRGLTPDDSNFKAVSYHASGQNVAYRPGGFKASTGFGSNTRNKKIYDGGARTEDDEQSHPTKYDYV

human CLDN18.2 [1] = target: T2, human CLDN18.2 (human, UniProt P56856)
human CLDN18.2 [2] = target: T2, human CLDN18.2; remark: listed apart in the source
human CLDN18.1 = target: T3, human CLDN18.1 (human, UniProt P56856)
T3 chain: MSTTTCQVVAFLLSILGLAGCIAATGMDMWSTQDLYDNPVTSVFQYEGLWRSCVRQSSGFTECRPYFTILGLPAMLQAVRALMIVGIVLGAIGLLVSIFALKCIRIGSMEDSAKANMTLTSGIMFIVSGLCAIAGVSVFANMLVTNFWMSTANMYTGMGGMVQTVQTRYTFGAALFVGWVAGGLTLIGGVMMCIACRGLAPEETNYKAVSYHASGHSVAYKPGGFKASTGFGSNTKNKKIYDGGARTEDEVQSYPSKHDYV

human CLDN18.2 [3] = target: T2, human CLDN18.2; remark: listed apart in the source
human CLDN18.2 [4] = target: T2, human CLDN18.2; remark: listed apart in the source
human CLDN18.2 [5] = target: T2, human CLDN18.2; remark: listed apart in the source
human CLDN18.2 [6] = target: T2, human CLDN18.2; remark: listed apart in the source
human CLDN18.2 [7] = target: T2, human CLDN18.2; remark: listed apart in the source
human CLDN18.2 [8] = target: T2, human CLDN18.2; remark: listed apart in the source
human CLDN18.2 [9] = target: T2, human CLDN18.2; remark: listed apart in the source
human CLDN18.2 [10] = target: T2, human CLDN18.2; remark: listed apart in the source
human CLDN18.2 [11] = target: T2, human CLDN18.2; remark: listed apart in the source
human CLDN18.2 [12] = target: T2, human CLDN18.2; remark: listed apart in the source

EC50 (mouse CLDN18.2): 0.399 nM | EC50 (human CLDN18.2 [1]): 0.35 nM | EC50 (human CLDN18.2 [2]): 0.145 nM | binding result (human CLDN18.1): no binding | EC50 (human CLDN18.2 [3]): 0.191 nM
B1: Ab14 (antibody)
chain 1: QVQLVQSGAEVKKPGSSVKVSCKASGYAFSNYLIEWVRQAPGQGLEWMGLINPGSGGTNYNEKFKGKVTITADKSTSTAYMELSSLRSEDTAVYYCARVYYGNSFAYWGQGTLVTVSS[human IgG1 constant region not shown]
chain 2: DIVMTQSPDSLAVSLGERATINCKSSQSLLNSGNNKNYLAWYQQKPGQPPKLLIYWASTRESGVPDRFSGSGSGTDFTLTISSLQAEDVAVYYCQNDYFYPFTFGQGTKLEIKRTVAAPSVFIFPPSDEQLKSGTASVVCLLNNFYPREAKVQWKVDNALQSGNSQESVTEQDSKDSTYSLSSTLTLSKADYEKHKVYACEVTHQGLSSPVTKSFNRGEC

binding result (human CLDN18.1): no binding | EC50 (human CLDN18.2 [3]): 0.19 nM
B2: Ab12 (antibody)
chain 1: QVQLVQSGAEVKKPGSSVKVSCKASGYAFSNYLIEWVRQAPGQGLEWMGLINPGSGGTNYNEKFKGKVTITADKSTSTAYMELSSLRSEDTAVYYCARVYYGNSFAYWGQGTLVTVSS[human IgG1 constant region not shown]
chain 2: DIVMTQSPDSLAVSLGERATISCKSSQSLLNSGNNKNYLAWYQQKPGQPPKLLIYWASTRESGVPDRFSGSGSGTDFTLTISSLQAEDVAVYYCQNDYFYPFTFGQGTKLEIKRTVAAPSVFIFPPSDEQLKSGTASVVCLLNNFYPREAKVQWKVDNALQSGNSQESVTEQDSKDSTYSLSSTLTLSKADYEKHKVYACEVTHQGLSSPVTKSFNRGEC

EC50 (human CLDN18.2 [4]): 0.127 nM | EC50 (human CLDN18.2 [5]): 0.162 nM | EC50 (human CLDN18.2 [6]): 0.11 nM | EC50 (human CLDN18.2 [7]): 0.424 nM
B3: LB401 CLDN18.2 arm (antibody)
chain 1: QVQLVQSGAEVKKPGSSVKVSCKASGYAFSNYLIEWVKQAPGQGLEWIGLINPGSGGTNYNEKFKGKATITADKSTSTAYMELSSLRSEDTAVYYCARVYYGNSFAYWGQGTLVTVSS[human IgG1 constant region not shown]GGGGSGGGGSGGGGSGIPPHVQKSVNNDMIVTDNNGAVKFPQLCKFCDVRFSTCDNQKSCMSNCSITSICEKPQEVCVAVWRKNDENITLETVCHDPKLPYHDFILEDAASPKCIMKEKKKPGETFFMCSCSSDECNDNIIFSEEYNTSNPD
chain 2: DIVMTQSPDSLAVSLGERATISCKSSQSLLNSGNQKNYLTWYQQKPGQPPKLLIYWASTRESGVPDRFSGSGSGTDFTLTISSLQAEDVAVYYCQNDYFYPFTFGQGTKLEIKRTVAAPSVFIFPPSDEQLKSGTASVVCLLNNFYPREAKVQWKVDNALQSGNSQESVTEQDSKDSTYSLSSTLTLSKADYEKHKVYACEVTHQGLSSPVTKSFNRGEC

EC50 (human CLDN18.2 [8]): 0.75 nM
B4: LB4331 CLDN18.2 arm (antibody)
chain 1: QVQLVQSGAEVKKPGSSVKVSCKASGYAFSNYLIEWVKQAPGQGLEWIGLINPGSGGTNYNEKFKGKATITADKSTSTAYMELSSLRSEDTAVYYCARVYYGNSFAYWGQGTLVTVSSASTKGPSVFPLAPCSRSTSESTAALGCLVKDYFPEPVTVSWNSGALTSGVHTFPAVLQSSGLYSLSSVVTVPSSSLGTKTYTCNVDHKPSNTKVDKRV[human IgG4 Fc with S228P (EU numbers) not shown]AGGGGSGGGGSGGGGSSPGQGTQSENSCTHFPGNLPNMLRDLRDAFSRVKTFFQMKDQLDNLLLKESLLEDFKGYLGCQALSEMIQFYLEEVMPQAENQDPDIKAHVNSLGENLKTLRLRLRRCHRFLPCENKSKAVEQVKNAFNKLQEKGIYKAMSEFDIFINYIEAYMTMKIRN
chain 2: DIVMTQSPDSLAVSLGERATISCKSSQSLLNSGNQKNYLTWYQQKPGQPPKLLIYWASTRESGVPDRFSGSGSGTDFTLTISSLQAEDVAVYYCQNDYFYPFTFGQGTKLEIKRTVAAPSVFIFPPSDEQLKSGTASVVCLLNNFYPREAKVQWKVDNALQSGNSQESVTEQDSKDSTYSLSSTLTLSKADYEKHKVYACEVTHQGLSSPVTKSFNRGEC

EC50 (human CLDN18.2 [8]): 0.88 nM
B5: LB4335 CLDN18.2 arm (antibody)
chain 1: QVQLVQSGAEVKKPGSSVKVSCKASGYAFSNYLIEWVKQAPGQGLEWIGLINPGSGGTNYNEKFKGKATITADKSTSTAYMELSSLRSEDTAVYYCARVYYGNSFAYWGQGTLVTVSSASTKGPSVFPLAPSSKSTSGGTAALGCLVKDYFPEPVTVSWNSGALTSGVHTFPAVLQSSGLYSLSSVVTVPSSSLGTQTYICNVNHKPSNTKVDKKV[human IgG1 Fc with changes not shown]AGGGGSGGGGSGGGGSSPGQGTQSENSCTHFPGNLPNMLRDLRDAFSRVKTFFQMKDQLDNLLLKESLLEDFKGYLGCQALSEMIQFYLEEVMPQAENQDPDIKAHVNSLGENLKTLRLRLRRCHRFLPCENKSKAVEQVKNAFNKLQEKGIYKAMSEFDIFINYIEAYMTMKIRN
chain 2: DIVMTQSPDSLAVSLGERATISCKSSQSLLNSGNQKNYLTWYQQKPGQPPKLLIYWASTRESGVPDRFSGSGSGTDFTLTISSLQAEDVAVYYCQNDYFYPFTFGQGTKLEIKRTVAAPSVFIFPPSDEQLKSGTASVVCLLNNFYPREAKVQWKVDNALQSGNSQESVTEQDSKDSTYSLSSTLTLSKADYEKHKVYACEVTHQGLSSPVTKSFNRGEC

EC50 (human CLDN18.2 [9]): 0.161 nM | EC50 (human CLDN18.2 [10]): 0.86 nM | EC50 (human CLDN18.2 [11]): 0.286 nM | EC50 (human CLDN18.2 [8]): 0.86 nM | EC50 (human CLDN18.2 [12]): 0.264 nM
B6: LB433 CLDN18.2 arm (antibody)
chain 1: QVQLVQSGAEVKKPGSSVKVSCKASGYAFSNYLIEWVKQAPGQGLEWIGLINPGSGGTNYNEKFKGKATITADKSTSTAYMELSSLRSEDTAVYYCARVYYGNSFAYWGQGTLVTVSS[human IgG1 constant region not shown]GGGGSGGGGSGGGGSSPGQGTQSENSCTHFPGNLPNMLRDLRDAFSRVKTFFQMKDQLDNLLLKESLLEDFKGYLGCQALSEMIQFYLEEVMPQAENQDPDIKAHVNSLGENLKTLRLRLRRCHRFLPCENKSKAVEQVKNAFNKLQEKGIYKAMSEFDIFINYIEAYMTMKIRN
chain 2: DIVMTQSPDSLAVSLGERATISCKSSQSLLNSGNQKNYLTWYQQKPGQPPKLLIYWASTRESGVPDRFSGSGSGTDFTLTISSLQAEDVAVYYCQNDYFYPFTFGQGTKLEIKRTVAAPSVFIFPPSDEQLKSGTASVVCLLNNFYPREAKVQWKVDNALQSGNSQESVTEQDSKDSTYSLSSTLTLSKADYEKHKVYACEVTHQGLSSPVTKSFNRGEC

EC50 (human CLDN18.2 [8]): 0.91 nM
B7: LB4333 CLDN18.2 arm (antibody)
chain 1: QVQLVQSGAEVKKPGSSVKVSCKASGYAFSNYLIEWVKQAPGQGLEWIGLINPGSGGTNYNEKFKGKATITADKSTSTAYMELSSLRSEDTAVYYCARVYYGNSFAYWGQGTLVTVSS[human IgG1 constant region with L234A (EU numbers) not shown]GGGGSGGGGSGGGGSSPGQGTQSENSCTHFPGNLPNMLRDLRDAFSRVKTFFQMKDQLDNLLLKESLLEDFKGYLGCQALSEMIQFYLEEVMPQAENQDPDIKAHVNSLGENLKTLRLRLRRCHRFLPCENKSKAVEQVKNAFNKLQEKGIYKAMSEFDIFINYIEAYMTMKIRN
chain 2: DIVMTQSPDSLAVSLGERATISCKSSQSLLNSGNQKNYLTWYQQKPGQPPKLLIYWASTRESGVPDRFSGSGSGTDFTLTISSLQAEDVAVYYCQNDYFYPFTFGQGTKLEIKRTVAAPSVFIFPPSDEQLKSGTASVVCLLNNFYPREAKVQWKVDNALQSGNSQESVTEQDSKDSTYSLSSTLTLSKADYEKHKVYACEVTHQGLSSPVTKSFNRGEC

EC50 (mouse CLDN18.2): 0.422 nM
B8: Ab13 (antibody)
chain 1: QVQLVQSGAEVKKPGSSVKVSCKASGYAFSNYLIEWVRQAPGQGLEWMGLINPGSGGTNYNEKFKGRVTITADESTSTAYMELSSLRSEDTAVYYCARVYYGNSFAYWGQGTLVTVSS[human IgG1 constant region not shown]
chain 2: DIVMTQSPDSLAVSLGERATINCKSSQSLLNSGNNKNYLAWYQQKPGQPPKLLIYWASTRESGVPDRFSGSGSGTDFTLTISSLQAEDVAVYYCQNDYFYPFTFGQGTKLEIKRTVAAPSVFIFPPSDEQLKSGTASVVCLLNNFYPREAKVQWKVDNALQSGNSQESVTEQDSKDSTYSLSSTLTLSKADYEKHKVYACEVTHQGLSSPVTKSFNRGEC
